Consider 58 compounds from PubChem BioAssay AID463173 (ICCB-Longwood Screening Facility, Harvard Medical School, 2010).

Out of some 52,000 compounds screened, about 1,700 (3.3%) were called active. No stated cut-off is given here; in the data, active means survival mostly below about 52% (no sharp cut-off); inactive means mostly above about 56%. Some of the results follow.

The test system of this test is Wild type. Nature of the test: S. aureus survival, RN4220 and DeltatarO strains – OD600, teichoic acid synthesis inhibitors, primary screen (AID 463173). Conditions: S. aureus RN4220 wild type/DeltatarO growth, OD600, 18 h, active compounds read low, screened at 18.75 µg/mL (by protocol).
In the case of `COc1ccc(NC(=O)Cn2c(=O)n(CCC(=O)NCc3ccccc3OC)c(=O)c3ccccc32)cc1Cl`, the survival was inactive: 101%. Take `Cc1ccc(Cn2ccn(Cc3ccccc3F)c(=O)c2=O)cc1`: the survival was inactive: 113%. Consider `CSc1ccc(CCNC(=O)c2ccc(-c3nc(COc4ccccc4)c(C)o3)cc2)cc1`, for which the survival was inactive: 81%. For `Cc1cccc(N2CCN(CCCNc3ncnc4onc(-c5ccc(Cl)cc5)c34)CC2C)c1` (stereo not drawn) the value was inactive: 66%; for `COc1cccc(CNC(=O)CCc2c(C)nc3c(c(C)nn3-c3ccc(C)c(C)c3)c2C)c1`, inactive: 86%; for `Cc1nc2c(-c3ccccc3)c(C)nn2c(C)c1CCC(=O)N1CCN(c2ccc(F)cc2)CC1`, inactive: 76%. For `Cc1c(Cl)cccc1NC(=O)COCc1cc(-c2ccc3c(c2)OCO3)on1` the value was inactive: 81%. The figure for `COc1ccc(CCNC(=O)CCn2c(=O)c3ccccc3n(Cc3cc(C)ccc3C)c2=O)cc1OC` is inactive: 96%. With `Cc1ccc2nc(-c3ccc(Cl)c(NC(=O)COc4cccc(C)c4C)c3)oc2c1`, the survival was inactive: 69%. The figure for `CCN1CCOC(=O)C1CC(=O)Nc1cc(C)ccc1OC` (stereo not drawn) is inactive: 113%; for `Cc1cccc(NC(=O)c2ccc3snnc3c2)c1` it is inactive: 105%; for `CCOC(=O)c1sc(NC(=O)/C=C/c2ccc(C(C)C)cc2)c(C(=O)OCC)c1C` it is inactive: 55%. For `CCCc1cc(=O)[nH]c2nnc(SC(C)CC)n12` (stereo not drawn), the survival was inactive: 80%. The figure for `CCN(CC)c1ccc(NC(=O)CCS(=O)(=O)c2cc3c(cc2Cl)NC(=O)CO3)c(C)c1` is inactive: 87%.

As for `O=c1cc(C(F)(F)F)nc2cc(-c3ccccc3)[nH]n12`, the survival was inactive: 104%. For `Cc1ccc2nc(N3CCN(c4cccc(C(F)(F)F)c4)CC3)c3nnnn3c2c1` the value was inactive: 78%; for `CCc1cccc(C)c1NS(=O)(=O)c1cc2[nH]c(=O)c(=O)[nH]c2cc1C`, inactive: 77%. For `CCc1ccc(NCc2cc3cc4c(cc3n(CC(=O)Nc3cccc(OC)c3)c2=O)OCO4)cc1` the value was inactive: 78%; for `CC(C)COc1ccc(C(=O)NCC2(N3CCN(C)CC3)CCCCC2)cc1`, inactive: 88%. As for `COCCNC(=O)Cn1nc(C)c2c(C)n(-c3ccc(C)cc3)nc2c1=O`, the survival was inactive: 131%.

For the compound `CCc1ccc2ncc3c(-c4ccccc4)nn(-c4ccccc4)c3c2c1`, the survival is active: 7%.

With `Cc1onc2c1C(=O)CC(C)(C)C2`, the survival was inactive: 103%. For `CCc1nnc(SCC(=O)Nc2ccccc2Cl)nc1CC` the value was inactive: 73%. For `Cc1ccc(C)c(NC(=O)CC2NCCNC2=O)c1` (stereo not drawn) the value was inactive: 71%; for `COc1cccc(NC(=O)CSc2nnc3scc(-c4ccc(Cl)cc4)n23)c1`, inactive: 100%; for `COc1ccc(N(C(=O)c2ccc(OC)c(OC)c2)S(=O)(=O)c2ccc(Cl)cc2)cc1`, inactive: 88%. Turning to `Cc1cc(C)n2nc(C(=O)N/N=C/c3ccncc3)nc2n1`, the survival was inactive: 85%. The figure for `Cc1cc(NS(=O)(=O)c2ccc(NC(=O)c3ccccc3C)cc2)nc(C)n1` is inactive: 78%; for `N#Cc1ccccc1Cn1c(=O)n(CCCC(=O)NCc2ccc3c(c2)OCO3)c(=O)c2sccc21` it is inactive: 126%. For `Cc1ccc(NC(=O)C2CCCN(c3nnc(-n4c(C)ccc4C)s3)C2)c(C)c1` (stereo not drawn) the value was inactive: 128%. For the compound `Cc1ccc2[nH]c(=O)c(CNCCCN(C)C)cc2c1`, the survival is inactive: 99%.

With `Cc1csc2nc(COC(=O)c3cccc(NC(=O)COc4ccc(Cl)cc4)c3)cc(=O)n12`, the survival is inactive: 78%.

Take `O=C(CCCCn1c(=O)c2ccccc2n(Cc2ccccc2Cl)c1=O)NCCc1ccccc1`: the survival was inactive: 132%. For `CCCC(C(=O)NCc1cccc(Cl)c1)N1Cc2ccccc2C1=O` (stereo not drawn) the value was inactive: 66%.

Regarding `Cc1ccn2c(=O)cc(COc3ccc(NC(=O)COc4ccc(Cl)cc4)cc3)nc2c1`, the survival is inactive: 76%. For `CCCN(CCC)C(=O)Cn1c(=O)n(-c2cccc(OC)c2)c(=O)c2c3c(sc21)CCCC3` the value was inactive: 85%; for `CC(=O)c1nn(-c2ccc(OC(F)(F)F)cc2)nc1Nc1ccc(C)cc1`, inactive: 96%. On to `Cc1cccc(/C=N/NC(=O)c2ccccn2)c1O`, for which the survival was inactive: 18%. The figure for `COc1ccccc1CNC(=O)CS(=O)Cc1nc(-c2ccc(OC)c(OC)c2)oc1C` (stereo not drawn) is inactive: 124%; for `CCOC(=O)c1ccc(NC(=O)C2CCN(S(=O)(=O)c3ccc(C)cc3)CC2)cc1` it is inactive: 70%. As to `C=CCn1c(CCc2ccc(OC(C)C)cc2)n[nH]c1=S`, the survival was inactive: 103%. The figure for `Cc1ccc2nc(-c3ccc(NC(=O)COc4ccc(Cl)c(C)c4)cc3)sc2c1` is inactive: 69%; for `COc1ccc(Nc2cc(C)c3cc(NC(=O)Cc4c(F)cccc4Cl)ccc3n2)cc1` it is inactive: 78%; for `CCN(Cc1ccccc1)C(=O)C1CCN(S(=O)(=O)c2c(C)noc2/C=C/c2ccc(C)cc2)CC1` it is inactive: 113%. Regarding `CCC1CN(C(=O)N2CCC(C(=O)O)CC2)c2cc(C)ccc2O1` (stereo not drawn), the survival is inactive: 59%.

In the case of `Cc1ccc(CCNC(=O)c2ccc(CSCc3ccccc3C)o2)cc1`, the survival was active: 0%.

As for `CCOc1ccc(CNS(=O)(=O)c2ccc(-c3cc(C(F)(F)F)on3)s2)cc1`, the survival is inactive: 67%. Regarding `COc1ccccc1CNC(=O)c1sc2nc3n(c(=O)c2c1C)CCC3`, the survival was inactive: 110%.

Regarding `Cc1ccc2nc3sc(C(N)=O)c(N)c3cc2c1`, the survival is inactive: 121%. The figure for `CCn1c(SCc2ccccc2F)nc(=O)c2c(C(=O)OC)cc(C3CC3)nc21` is inactive: 64%; for `Fc1ccc(C(c2nnnn2C2CCCC2)N(Cc2ccccc2)Cc2ccco2)cc1` (stereo not drawn) it is inactive: 110%. As for `Cc1cccc(N2CCN(C(=O)c3ccc(NC(=O)c4nsc5ccccc45)cc3)CC2C)c1` (stereo not drawn), the survival is inactive: 81%. Take `O=C(NCc1ccncc1)C1CCN(S(=O)(=O)c2ccccc2)CC1`: the survival was inactive: 109%. The figure for `CCOc1ccc(Cl)cc1C1CC(=O)Nc2cc(OC)c(OC)c(OC)c21` (stereo not drawn) is inactive: 87%; for `CCCNc1ccc(-c2nc(-c3ccncc3)no2)cc1[N+](=O)[O-]` it is inactive: 84%.

As for `CCOc1ccc(-c2cc(C(=O)NCc3ccc(C)cc3)c3ccccc3n2)cc1`, the survival was inactive: 79%. The figure for `COc1ccc(S(=O)(=O)N2CCN(c3cccc(Cl)c3C)CC2)cc1OC` is inactive: 106%; for `CCOC(=O)C1CCCN(C(=O)Cn2ncc3c([nH]c4ccc(C)cc43)c2=O)C1` (stereo not drawn) it is inactive: 55%.
